Assay results as given in patent US20180015075A1, “METHODS AND COMPOSITIONS FOR TREATMENT OF VENOUS MALFORMATION” (Children's Hospital Medical Center, priority 2016, published 2018).
Counter-ions that a name gives are not always drawn.

Legend:
HUVEC-TIE2-WT [1] = settings: for Combination Index (CI) with rapamycin, WT: ABL kinase inhibitor 10 μM to 30 nM combined with rapamycin 10 nM; for Average proliferation Inhibition rate (%) WT: 20 uM
HUVEC-TIE2-L914F [2] = assay: cells; settings: Homo sapiens; for inhibition at 20 µM: read-out: Average proliferation Inhibition rate (%) L914F; for IC50: read-out: IC50 L914F
HUVEC-TIE2-WT [3] = assay: cells; settings: Homo sapiens; for inhibition at 20 µM: read-out: Average proliferation Inhibition rate (%) WT; for IC50: read-out: IC50 WT
HUVEC-TIE2-L914F [4] = settings: for Average proliferation Inhibition rate (%) L914F: 20 uM; for proliferation inhibition of HUVEC-TIE2-L914F relative to rapamycin: in vitro drug screening

Row | SMILES | inhibition at 20 µM (HUVEC-TIE2-L914F [2]) | inhibition at 20 µM (HUVEC-TIE2-WT [3]) | other results
1 | COc1cc(Nc2c(C#N)cnc3cc(OCCCN4CCN(C)CC4)c(OC)cc23)c(Cl)cc1Cl [Bosutinib, 4-((2,4-Dichloro-5-methoxyphenyl)amino)-6-methoxy-7-(3-(4-methyl-1-piperazinyl)propoxy)3-quinolinecarbonitrile] | 57.6% | 36.2% | Combination Index (CI) with rapamycin, WT (HUVEC-TIE2-WT [1]): 1.72 ± 0.41; IC50 (HUVEC-TIE2-L914F [2]): 3.54 ± 1.14 µM; IC50 (HUVEC-TIE2-WT [3]): 4.1 ± 0.68 µM
2 | N.N.O=C([O-])C1(C(=O)[O-])CCC1.[Pt+2] [Carboplatin] | – | – | Average proliferation Inhibition rate (%) WT (HUVEC-TIE2-WT [1]): −3.94%; Average proliferation Inhibition rate (%) L914F (HUVEC-TIE2-L914F [4]): 1.26%
3 | N.N.[Cl][Pt][Cl] [Cisplatin] | – | – | Average proliferation Inhibition rate (%) WT (HUVEC-TIE2-WT [1]): −6.87%; Average proliferation Inhibition rate (%) L914F (HUVEC-TIE2-L914F [4]): 1.15%
4 | Cl.Nc1ccn([C@@H]2O[C@H](CO)[C@@H](O)[C@@H]2O)c(=O)n1 [Cytarabine hxdrochloride] | – | – | Average proliferation Inhibition rate (%) WT (HUVEC-TIE2-WT [1]): 27.99%; Average proliferation Inhibition rate (%) L914F (HUVEC-TIE2-L914F [4]): 30.30%
5 | CO[C@H]1C[C@@H]2CC[C@@H](C)[C@@](O)(O2)C(=O)C(=O)N2CCCC[C@H]2C(=O)O[C@H]([C@H](C)C[C@@H]2CC[C@@H](OCCO)[C@H](OC)C2)CC(=O)[C@H](C)/C=C(\C)[C@@H](O)[C@@H](OC)C(=O)[C@H](C)C[C@H](C)/C=C/C=C/C=C/1C [Everolimus, 42-O-(2-Hydroxyethyl)-rapamycin] | 50.5% | 28% | proliferation inhibition of HUVEC-TIE2-L914F relative to rapamycin (HUVEC-TIE2-L914F [4]): same effectiveness as rapamycin; IC50 (HUVEC-TIE2-WT [3]): < 0.03 µM
6 | CC(=O)O[C@]1(C(C)=O)CC[C@H]2[C@@H]3C=C(C)C4=CC(=O)CC[C@]4(C)[C@H]3CC[C@@]21C [Megestrol-acetate] | 2.95% | -7.37% | –
7 | S=c1nc[nH]c2nc[nH]c12 [Mercaptopurine] | 10.9% | 0.45% | –
8 | CN(Cc1cnc2nc(N)nc(N)c2n1)c1ccc(C(=O)N[C@@H](CCC(=O)O)C(=O)O)cc1 [Methotrexate] | -2.85% | -7.58% | –
9 | COc1c2occc2cc2ccc(=O)oc12 [Methoxsalen] | -0.04% | -1.69% | –
10 | CO[C@@]12[C@H](COC(N)=O)C3=C(C(=O)C(C)=C(N)C3=O)N1C[C@@H]1N[C@@H]12 [Mitomycin] | 69.4% | 53.5% | –
11 | Clc1ccc(C(c2ccccc2Cl)C(Cl)Cl)cc1 (stereo not drawn) [Mitotane] | 4.55% | -0.12% | –
12 | O=C1c2c(O)ccc(O)c2C(=O)c2c(NCCNCCO)ccc(NCCNCCO)c21 [Mitoxantrone] | 73.6% | 69.9% | –
13 | COc1nc(N)nc2c1ncn2[C@@H]1O[C@H](CO)[C@@H](O)[C@@H]1O [Nelarabine] | 3% | -0.28% | –
14 | Cc1cn(-c2cc(NC(=O)c3ccc(C)c(Nc4nccc(-c5cccnc5)n4)c3)cc(C(F)(F)F)c2)cn1 [Nilotinib, 4-Methyl-N-[3-(4-methyl-1H-imidazol-1-yl)-5-(trifluoromethyl)phenyl]-3-[[4-(3-pyridinyl)-2-pyrimidinyl]amino]-benzamide] | 13.1% | -9.36% | Combination Index (CI) with rapamycin, WT (HUVEC-TIE2-WT [1]): 0.58 ± 0.15; IC50 (HUVEC-TIE2-L914F [2]): 3.61 ± 0.03 µM; IC50 (HUVEC-TIE2-WT [3]): 4.98 ± 0.9 µM
15 | O=C(c1cc(Cc2n[nH]c(=O)c3ccccc23)ccc1F)N1CCN(C(=O)C2CC2)CC1 [Olaparib] | 11.5% | 11% | –
16 | CC(=O)O[C@H]1C(=O)[C@@]2(C)[C@H]([C@H](OC(=O)c3ccccc3)[C@]3(O)C[C@H](OC(=O)[C@H](O)[C@@H](NC(=O)c4ccccc4)c4ccccc4)C(C)=C1C3(C)C)[C@]1(OC(C)=O)CO[C@@H]1C[C@@H]2O [Paclitaxel] | 42.9% | 41.6% | –
17 | Cc1ccc(Nc2nccc(N(C)c3ccc4c(C)n(C)nc4c3)n2)cc1S(N)(=O)=O [Pazopanib hydrochloride] | 45.3% | 31.8% | –
18 | Nc1nc2[nH]cc(CCc3ccc(C(=O)N[C@@H](CCC(=O)O)C(=O)O)cc3)c2c(=O)[nH]1 [Pemetrexed disodium salt] | 5.13% | -2.57% | –
19 | OC[C@H]1O[C@@H](n2cnc3c2NC=NC[C@H]3O)C[C@@H]1O [Pentostatin] | -2.59% | -5.53% | –
20 | O=C(CCBr)N1CCN(C(=O)CCBr)CC1 [Pipobroman] | 10.1% | 3.55% | –
21 | Nc1cccc2c1C(=O)N(C1CCC(=O)NC1=O)C2=O (stereo not drawn) [Pomalidomide] | -1.48% | -4.53% | –
22 | C#CCC(Cc1cnc2nc(N)nc(N)c2n1)c1ccc(C(=O)N[C@@H](CCC(=O)O)C(=O)O)cc1 (stereo partly drawn) [Pralatrexate] | 34.6% | -13.5% | –
23 | O=C(c1ccc(OCCN2CCCCC2)cc1)c1c(-c2ccc(O)cc2)sc2cc(O)ccc12 [Raloxifene] | 7.46% | 28.2% | –
24 | CNC(=O)c1cc(Oc2ccc(NC(=O)Nc3ccc(Cl)c(C(F)(F)F)c3)c(F)c2)ccn1 [Regorafenib] | 35.4% | 34.7% | –

Row | SMILES | inhibition at 20 µM (HUVEC-TIE2-L914F [2]) | inhibition at 20 µM (HUVEC-TIE2-WT [3]) | other results
25 | C/C=C1\NC(=O)[C@H]2CSSCC/C=C/[C@H](CC(=O)N[C@H](C(C)C)C(=O)N2)OC(=O)[C@H](C(C)C)NC1=O [Romidepsin] | 29.7% | 39.1% | –
26 | CNC(=O)c1cc(Oc2ccc(NC(=O)Nc3ccc(Cl)c(C(F)(F)F)c3)cc2)ccn1 [Sorafenib] | 49.6% | 8.77% | IC50 (HUVEC-TIE2-L914F [2]): > 10 µM; IC50 (HUVEC-TIE2-WT [3]): > 10 µM
27 | CN(N=O)C(=O)N[C@@H](C=O)[C@@H](O)[C@H](O)[C@H](O)CO [Streptozocin] | -0.95% | -5.84% | –
28 | CC/C(=C(\c1ccccc1)c1ccc(OCCN(C)C)cc1)c1ccccc1 [Tamoxifen citrate] | 10.4% | 37.3% | –
29 | Cn1nnc2c(C(N)=O)ncn2c1=O [Temozolomide] | -1.03% | 0.12% | –
30 | CO[C@H]1C[C@@H]2CC[C@@H](C)[C@@](O)(O2)C(=O)C(=O)N2CCCC[C@H]2C(=O)O[C@H]([C@H](C)C[C@@H]2CC[C@@H](OC(=O)C(C)(CO)CO)[C@H](OC)C2)CC(=O)[C@H](C)/C=C(\C)[C@@H](O)[C@@H](OC)C(=O)[C@H](C)C[C@H](C)/C=C/C=C/C=C/1C [Temsirolimus, 42-[3-Hydroxy-2-(hydroxymethyl)-2-methylpropanoate]-rapamycin] | 58.3% | 31.5% | proliferation inhibition of HUVEC-TIE2-L914F relative to rapamycin (HUVEC-TIE2-L914F [4]): same effectiveness as rapamycin; IC50 (HUVEC-TIE2-WT [3]): < 0.03 µM
31 | COc1cc([C@@H]2c3cc4c(cc3[C@@H](O[C@@H]3O[C@@H]5CO[C@@H](c6cccs6)O[C@H]5[C@H](O)[C@H]3O)[C@H]3COC(=O)[C@H]23)OCO4)cc(OC)c1O [Teniposide] | 63.9% | 49.9% | –
32 | O=C1CCC(N2C(=O)c3ccccc3C2=O)C(=O)N1 (stereo not drawn) [Thalidomide] | -2.35% | -5.38% | –
33 | Nc1nc2nc[nH]c2c(=S)[nH]1 [Thioguanine] | 47.6% | 30.8% | –
34 | S=P(N1CC1)(N1CC1)N1CC1 [Thiotepa] | 10.2% | 8.06% | –
35 | CC[C@@]1(O)C(=O)OCc2c1cc1n(c2=O)Cc2cc3c(CN(C)C)c(O)ccc3nc2-1 [Topotecan hydrochloride] | 68.4% | 63.8% | –
36 | CC(=O)Nc1cccc(-n2c(=O)n(C3CC3)c(=O)c3c(Nc4ccc(I)cc4F)n(C)c(=O)c(C)c32)c1 [Trametinib] | 40.2% | -0.64% | –
37 | CC1=C(/C=C/C(C)=C/C=C/C(C)=C/C(=O)O)C(C)(C)CCC1 [Tretinoin] | 0.11% | -7.14% | –
38 | C1CN1c1nc(N2CC2)nc(N2CC2)n1 [Triethylenemelamine] | 40.6% | 20.7% | –
39 | Oc1ncc(N(CCCl)CCCl)c(O)n1 [Uracil mustard] | 17.5% | 6.77% | –
40 | CCCCC(=O)OCC(=O)[C@]1(O)Cc2c(O)c3c(c(O)c2[C@@H](O[C@H]2C[C@H](NC(=O)C(F)(F)F)[C@H](O)[C@H](C)O2)C1)C(=O)c1c(OC)cccc1C3=O [Valrubicin] | 45.4% | 2.82% | –
41 | COc1cc2c(Nc3ccc(Br)cc3F)ncnc2cc1OCC1CCN(C)CC1 [Vandetanib] | 66.7% | 49% | IC50 (HUVEC-TIE2-L914F [2]): > 10 µM; IC50 (HUVEC-TIE2-WT [3]): 5.63 ± 0.24 µM
42 | CCCS(=O)(=O)Nc1ccc(F)c(C(=O)c2c[nH]c3ncc(-c4ccc(Cl)cc4)cc23)c1F [Vemurafenib] | 0.7% | -4.4% | –
43 | CC[C@]1(O)C[C@@H]2CN(CCc3c([nH]c4ccccc34)[C@@](C(=O)OC)(c3cc4c(cc3OC)N(C)[C@H]3[C@@](O)(C(=O)OC)[C@H](OC(C)=O)[C@]5(CC)C=CCN6CC[C@]43[C@@H]65)C2)C1 [Vinblastine sulfate] | 35.4% | 43% | –
44 | CC[C@]1(O)C[C@H]2CN(CCc3c([nH]c4ccccc34)[C@@](C(=O)OC)(c3cc4c(cc3OC)N(C=O)[C@H]3[C@@](O)(C(=O)OC)[C@H](OC(C)=O)[C@]5(CC)C=CCN6CC[C@]43[C@@H]65)C2)C1 [Vincristine sulfate] | 32.8% | 29.4% | –
45 | CCC1=C[C@@H]2CN(C1)Cc1c([nH]c3ccccc13)[C@@](C(=O)OC)(c1cc3c(cc1OC)N(C)[C@H]1[C@@](O)(C(=O)OC)[C@H](OC(C)=O)[C@]4(CC)C=CCN5CC[C@]31[C@@H]54)C2 [Vinorelbine tartrate] | 35.3% | 36% | –
46 | CS(=O)(=O)c1ccc(C(=O)Nc2ccc(Cl)c(-c3ccccn3)c2)c(Cl)c1 [Vismodegib] | 1.57% | -9.97% | –
47 | O=P(O)(O)C(O)(Cn1ccnc1)P(=O)(O)O [Zoledronic acid] | -0.37% | -11.7% | –
